Test results published in PubChem BioAssay AID624417 (National Center for Advancing Translational Sciences (NCATS), 2012).
About 6,400 (1.6%) of roughly 410,000 compounds were called active. The inconclusive results got no clear call from the source; some entries with a clear call stand among them for comparison. The call rests on the fitted dose curve; in most records, active means well fitted inhibition curve with a large enough effect; inconclusive means small, poorly fitted or top-dose-only effect; inactive means no such curve, though single readings can be large or run the other way. Where the call is inconclusive, the potency comes from a doubtful curve fit.

What follows are molecules tested against Glucagon-like peptide 1 receptor (Homo sapiens) (UniProt P43220) (assay: qHTS of GLP-1 Receptor Inverse Agonists (Inhibition Mode)). Conditions: HEK293 GLP-1R CRE-luciferase, luminescence, 24 h, GLP-1R form is constitutively active; activity change, negative = inhibition: at 38.3 µM (top of the series) unless noted.
Chain of UniProt P43220 (P43220 whole entry, looked up): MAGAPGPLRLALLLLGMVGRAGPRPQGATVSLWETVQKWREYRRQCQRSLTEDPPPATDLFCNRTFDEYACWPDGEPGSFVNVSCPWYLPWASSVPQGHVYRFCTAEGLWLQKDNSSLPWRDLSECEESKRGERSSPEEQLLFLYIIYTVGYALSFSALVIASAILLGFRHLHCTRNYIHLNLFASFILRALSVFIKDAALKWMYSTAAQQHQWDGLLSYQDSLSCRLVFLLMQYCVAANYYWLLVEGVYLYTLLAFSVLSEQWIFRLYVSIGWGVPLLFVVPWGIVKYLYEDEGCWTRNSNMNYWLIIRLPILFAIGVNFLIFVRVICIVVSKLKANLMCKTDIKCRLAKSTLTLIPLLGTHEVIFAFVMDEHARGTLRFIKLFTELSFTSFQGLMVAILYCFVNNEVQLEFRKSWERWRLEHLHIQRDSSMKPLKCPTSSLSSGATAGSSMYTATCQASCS
Outline: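 HEK293 cells stably co-expressing a cAMP-responsive luciferase reporter and constitutively active GLP-1R were seeded, incubated 12 h, then exposed to compounds for 24 h at 37 C. Luminescence was read 12 min after detection reagent; inverse agonists lower signal.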
Further: nearly all actives have a fitted effect of over 55% in size.
On the % scale 0 is the no-effect control and ±100 the full control effect; potency means the concentration at half of the fitted maximal effect; tags describe the fitted curve by direction and shape.

Potency, inconclusive:
COC(=O)c1ccc(C(=O)NC2CCCN(Cc3ccc(Cl)cc3)C2)nc1 (centres undefined) 14.1 µM [inhibitor, partial curve, poor fit]
CCOc1ccccc1C(=O)OCC(=O)Nc1ccc(N2CCCCC2)cc1 20 µM [inhibitor, partial curve, poor fit]
CCCCc1ccc(S(=O)(=O)N2CCN(C(=O)c3ccco3)CC2)cc1 28.2 µM [inhibitor, single point]
Cn1c(=O)c2c(nc(NCCc3ccccc3)n2Cc2ccc(Cl)cc2)n(C)c1=O 28.2 µM [inhibitor, single point]
CCOc1ccc(NC(=O)N2CCc3ccccc3C2)cc1 25.1 µM [inhibitor, single point]
O=C(O)/C=C\C(=O)Nc1ccc(N2CCN(c3ccc(F)cc3)CC2)cc1 11.2 µM [inhibitor, partial curve, poor fit]
COc1ccccc1Nc1c2c(nc3ccccc13)CCC2 1.78 µM [inhibitor, partial curve, poor fit]
CC1=NN(c2nc3ccccc3[nH]2)C(=O)C1Cc1ccccc1 (centres undefined) 28.2 µM [inhibitor, single point]
COc1ccc(C)cc1NC(=O)c1nn(-c2ccccc2)cc1OC 11.2 µM [inhibitor, single point]
CCOC(=O)C1CCCN(C(=O)c2ccc3c(=O)n(Cc4ccccc4OC)c(=S)[nH]c3c2)C1 (centres undefined) 28.2 µM [inhibitor, single point]
O=C(Cn1cnc2ccccc21)Nc1ccc(SC(F)F)cc1 10 µM [inhibitor, partial curve, poor fit]

Potency, inactive:
CCCCN1CCc2c([nH]c3ccccc23)C1=O
CC(=O)Nc1ccc(CN2CCN(c3cccc(C(F)(F)F)c3)CC2)cc1
COc1cc(NC(=O)C(CCS(C)(=O)=O)N2Cc3ccccc3C2=O)cc(OC)c1OC (centres undefined)
COc1cccc(C2CC(=O)N3CN(C4CCCCC4)CSC3=C2C#N)c1 (centres undefined)

Potency, active:
Cc1cc(C)cc(C(O)c2ncc(-c3ccc(Cl)cc3)[nH]2)c1 (centres undefined) 12.6 µM

Activity change, negative = inhibition, inactive:
Cc1ccc(C2=NN=C(NC(=O)CSc3nncn3C)SC2)cc1 -10.9% [at 0.307 µM]
Cc1nnc(NC(=O)CCn2cnc3ccccc3c2=O)s1 9.89% [at 7.66 µM]

Activity change, negative = inhibition, inconclusive:
Cc1ccccc1Cn1cc(/C=N/n2cnnc2)c2ccccc21 -31.8% [inhibitor]
